# Assay results from publication PMC7819943, “Rice protein-binding microarrays: a tool to detect cis-acting elements near promoter regions in rice”.
# The list shows a part of the results.
# Target: T1, OsWOX13 (Oryza sativa, UniProt Q5QMM3 1-267)
# T1 sequence: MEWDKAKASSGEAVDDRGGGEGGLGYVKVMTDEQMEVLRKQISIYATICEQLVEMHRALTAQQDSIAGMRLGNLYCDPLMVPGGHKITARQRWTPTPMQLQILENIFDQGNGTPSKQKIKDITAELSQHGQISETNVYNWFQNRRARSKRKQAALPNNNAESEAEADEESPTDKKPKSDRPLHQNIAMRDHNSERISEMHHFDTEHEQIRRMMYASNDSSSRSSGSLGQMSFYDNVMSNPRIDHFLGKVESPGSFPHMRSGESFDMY
# Test: protein-binding microarray (RPBM); PBS, 2% BSA, 51.3 ng/ul salmon testes DNA, 50 uM zinc acetate, 200 nM TF, 25 C, 1 h; high values mean tight binding
# Conditions: protein: recombinant; tags: N-terminal polyhistidine and DsRed monomer fusion (pET32a); label: CyDye5-dUTP incorporated in the synthesized complementary strand; 3' TTTTT single-stranded linker to array surface; dsDNA, one strand shown
# Procedure, shortened: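 Ni–NTA purification followed expression in E. coli BL21-CodonPlus of transcription factors fused N-terminally to a polyhistidine tag and DsRed. At 200 nM in PBS with 2% BSA, salmon testes DNA and 50 µM zinc acetate, the protein was incubated for 1 h at 25 °C with a custom Agilent array that had been primer-extended with Cy5-dUTP and blocked with 2% BSA. After washing, the array was read on an Axon 4000B scanner. The binding signal is per-feature fluorescence intensity in arbitrary units.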
row,Sequence,binding signal
1,TTAATTAACTTCATAATCTACAGTATATTGAATTAATCTACGGAGTCACCTAGTGCAG,9540 fluorescence intensity (a.u.)
2,GTCAATTCTGTCAATCTATGACTTTATGAAATCGTGTTTACGGAGTCACCTAGTGCAG,27100 fluorescence intensity (a.u.)
3,ATAATGTCAAATTTCGTTCCATTGTGAAGAAATTTTGCCACGGAGTCACCTAGTGCAG,3410 fluorescence intensity (a.u.)
4,AGGTGACTGGCCATGGACTGGCCCATGACGTTCGTGCCGGCGGAGTCACCTAGTGCAG,7080 fluorescence intensity (a.u.)
5,ACAAATTTGTAGCCCGCTGCTCTTCTCTCTCATCTTTTATCGGAGTCACCTAGTGCAG,4860 fluorescence intensity (a.u.)
6,ATAGAAACTTAATTAACATTGCATGGCGATGGTTTGACGACGGAGTCACCTAGTGCAG,6800 fluorescence intensity (a.u.)
7,GTTGTGACAGAATCAAGAATTTAAACCATTTTCATTATTACGGAGTCACCTAGTGCAG,4020 fluorescence intensity (a.u.)
8,TATAATTAACCCCGCAAATATATATTCTCATGCACCAAGCCGGAGTCACCTAGTGCAG,9970 fluorescence intensity (a.u.)
9,AACCCAATAACGGTAACTGACAAAACGATGAAAACCAAACCGGAGTCACCTAGTGCAG,4460 fluorescence intensity (a.u.)
10,ATAACTTAACAGAAATATTATAGGTTGATCAAATGGAATGCGGAGTCACCTAGTGCAG,8320 fluorescence intensity (a.u.)
11,AATTACATATATAATTTAAGGACTTACAAATATAATTTAGCGGAGTCACCTAGTGCAG,4280 fluorescence intensity (a.u.)
12,GCCAGTGTCACCTAATTATCTGTCGTTTATTTTATATTGTCGGAGTCACCTAGTGCAG,4500 fluorescence intensity (a.u.)
13,GTATGATTATCTTTCTTCGAGTAATTAACACGAAACGATGCGGAGTCACCTAGTGCAG,40700 fluorescence intensity (a.u.)
14,ACGGTGACTGATTAGTCTCTTGTGCCCCTAAGGGCAGAGCCGGAGTCACCTAGTGCAG,29600 fluorescence intensity (a.u.)
15,GTAGTAATTATTAAAATCTTTTGAGCAAGAGGGGTATACTCGGAGTCACCTAGTGCAG,16500 fluorescence intensity (a.u.)
16,GCTCCGTTAATTTTCTCGGCAATTAAGCGAAAGCAATTGACGGAGTCACCTAGTGCAG,9360 fluorescence intensity (a.u.)
17,GCCCAAACTAGTGATTATGTGGGCCTAAGAAAGAAAAGCCCGGAGTCACCTAGTGCAG,3180 fluorescence intensity (a.u.)
18,ACTAATTTGGAGTATTAAGCATAGACTATTTATAAAACTACGGAGTCACCTAGTGCAG,7390 fluorescence intensity (a.u.)
19,GTACACACACTCGGTTAATTACCAGCAGCAGTTTACAGTCCGGAGTCACCTAGTGCAG,3400 fluorescence intensity (a.u.)
20,AGCTGAAATCAGATGGCAATTAATGTGGATATGATACTTGCGGAGTCACCTAGTGCAG,7310 fluorescence intensity (a.u.)
21,CAGTTAATTTATACAAGCAAAACGAATTATATAGTTCATGCGGAGTCACCTAGTGCAG,33100 fluorescence intensity (a.u.)

row,Sequence,binding signal
1,TTTATAATTGCAATTAGTGTTTCAGGATGAGGGAAGTGCACGGAGTCACCTAGTGCAG,44600 fluorescence intensity (a.u.)
2,AGAGATGCTGATTGCTGAGCGGTACATATGGGCTGGCATTCGGAGTCACCTAGTGCAG,13700 fluorescence intensity (a.u.)
3,ATTGTTGGATTGGACAATTTATTAACAGTCTCTGTCCGAGCGGAGTCACCTAGTGCAG,16600 fluorescence intensity (a.u.)
4,AATAACAAAACAAATTACAGATTTTGCCAGAAAACTGCGACGGAGTCACCTAGTGCAG,7780 fluorescence intensity (a.u.)
5,TACTCTGATGGATATATTGGAGGATATGAATTAAGGAGTCCGGAGTCACCTAGTGCAG,6190 fluorescence intensity (a.u.)
6,ATTAATTAAGGAAGGGTTGCATGCATCCGTGGGCCGTATGCGGAGTCACCTAGTGCAG,3630 fluorescence intensity (a.u.)
7,ATTAAACAAATATTAAATTTAGATCCTATAAACGCTCCTACGGAGTCACCTAGTGCAG,10400 fluorescence intensity (a.u.)
8,GGATGTGATGACTGTTTGTCTGTTTGGCTGATATCTCCACCGGAGTCACCTAGTGCAG,7550 fluorescence intensity (a.u.)
9,ACTAGAAACATCATTTAGATTGCATAAGTTCAAAACAACCCGGAGTCACCTAGTGCAG,3160 fluorescence intensity (a.u.)
10,AAGCAAATCTCTAGATAGATAGATAGATGGATGGATGGATCGGAGTCACCTAGTGCAG,10800 fluorescence intensity (a.u.)
11,GTCGGATTAGTGATTATGCTAATCAATGCCACGTAGGATCCGGAGTCACCTAGTGCAG,33300 fluorescence intensity (a.u.)
12,TGTTAGATGATAAAACATGATTAATATTTTATGCGTGACTCGGAGTCACCTAGTGCAG,8120 fluorescence intensity (a.u.)
13,TATAATTGATTATTTTAATTTCTTTTGCTATTAATAGTCACGGAGTCACCTAGTGCAG,64700 fluorescence intensity (a.u.)
14,GTAAATTGGCATTGGTTTGATTTATGTTTGCAATGCAGCGCGGAGTCACCTAGTGCAG,58200 fluorescence intensity (a.u.)
15,GGAAAATTACCGTTCCTGGTTTTAACAGCGTTTGTGCAATCGGAGTCACCTAGTGCAG,7670 fluorescence intensity (a.u.)
16,TAGTGCCAATCATCAACTAAGGCCCAGCCCATACAATCTACGGAGTCACCTAGTGCAG,7940 fluorescence intensity (a.u.)
17,ATGCAGTAATTAATCAATTAACTAATTAACTCACCCCATGCGGAGTCACCTAGTGCAG,47800 fluorescence intensity (a.u.)
18,GATGTGATGTAATTATTGTGTATTAAGGTTTTCGATACAACGGAGTCACCTAGTGCAG,12600 fluorescence intensity (a.u.)
19,GCCATCAACATTGAACTGTTGATTGCACCTCTGCCAAGAACGGAGTCACCTAGTGCAG,4410 fluorescence intensity (a.u.)
20,AAATGACAGCTCAATCAACACGCACCAAACTGAAACGGCCCGGAGTCACCTAGTGCAG,41400 fluorescence intensity (a.u.)
21,ACTAATTGCACATATTGCGACTAATTTGCGAGACGAATCTCGGAGTCACCTAGTGCAG,26300 fluorescence intensity (a.u.)
